Out of some 310,000 compounds screened, about 14,000 (4.5%) showed an effect of 50% or more. The effect is printed as a negative number. Some of the results follow.
What follows are compounds tested against human ether-à-go-go-related gene (hERG) potassium channel (human, UniProt Q12809) (assay: primary screen, population patch clamp on CHO cells stably expressing hERG).
Chain of human ether-à-go-go-related gene (hERG) potassium channel (Q12809 whole entry, looked up): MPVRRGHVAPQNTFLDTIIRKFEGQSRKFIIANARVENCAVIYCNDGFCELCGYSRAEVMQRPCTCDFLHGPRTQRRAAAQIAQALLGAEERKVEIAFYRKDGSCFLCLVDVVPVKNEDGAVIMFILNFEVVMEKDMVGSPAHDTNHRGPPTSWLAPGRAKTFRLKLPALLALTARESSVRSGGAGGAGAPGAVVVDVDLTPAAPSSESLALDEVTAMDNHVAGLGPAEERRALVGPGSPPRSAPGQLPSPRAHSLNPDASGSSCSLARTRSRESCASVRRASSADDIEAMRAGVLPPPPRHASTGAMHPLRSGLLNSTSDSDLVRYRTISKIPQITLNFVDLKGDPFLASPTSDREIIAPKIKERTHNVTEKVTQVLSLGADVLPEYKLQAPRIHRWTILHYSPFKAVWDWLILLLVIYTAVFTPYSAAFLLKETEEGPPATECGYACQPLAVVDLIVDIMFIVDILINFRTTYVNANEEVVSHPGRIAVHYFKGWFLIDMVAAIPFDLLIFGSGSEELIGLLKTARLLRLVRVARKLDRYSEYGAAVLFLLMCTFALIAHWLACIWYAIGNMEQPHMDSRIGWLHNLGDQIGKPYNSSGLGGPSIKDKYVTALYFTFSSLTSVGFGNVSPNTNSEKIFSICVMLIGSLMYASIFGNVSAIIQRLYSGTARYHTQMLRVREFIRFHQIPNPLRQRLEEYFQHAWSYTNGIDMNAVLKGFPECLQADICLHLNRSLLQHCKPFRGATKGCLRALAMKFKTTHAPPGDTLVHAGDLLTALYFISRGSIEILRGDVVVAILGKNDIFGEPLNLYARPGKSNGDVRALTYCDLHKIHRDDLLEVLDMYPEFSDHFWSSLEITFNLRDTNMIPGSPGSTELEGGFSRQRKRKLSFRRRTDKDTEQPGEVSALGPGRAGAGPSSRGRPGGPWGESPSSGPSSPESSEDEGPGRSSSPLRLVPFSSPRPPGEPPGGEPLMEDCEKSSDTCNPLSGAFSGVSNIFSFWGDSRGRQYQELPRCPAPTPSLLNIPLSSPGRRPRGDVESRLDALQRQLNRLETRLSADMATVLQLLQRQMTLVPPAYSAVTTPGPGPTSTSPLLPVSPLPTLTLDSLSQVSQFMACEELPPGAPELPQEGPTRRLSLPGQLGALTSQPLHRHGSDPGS
In the case of `CC(OC(=O)CCCN=C1NS(=O)(=O)c2ccccc21)C(=O)Nc1ccc(F)c(F)c1F` (centres unmarked), the “hERG current change (%, negative = inhibition) at 10uM” value is reported as -1.56%. In the case of `Cc1c(NC2=CC(=O)CCC2)c(=O)n(-c2ccccc2)n1C`, the “hERG current change (%, negative = inhibition) at 10uM” value is reported as 8.37%. `N#Cc1cn(CC(=O)N2CCc3ccccc3C2)c2ccccc12` was tested, and the “hERG current change (%, negative = inhibition) at 10uM” value was -7.6%. In the case of `Cc1ccc([N+](=O)[O-])cc1S(=O)(=O)Nc1cccc(-c2ccc(N3CCOCC3)nn2)c1`, the “hERG current change (%, negative = inhibition) at 10uM” value is reported as -13%. For `COc1ccc(NC(=O)NCc2ccco2)cc1OC`, the “hERG current change (%, negative = inhibition) at 10uM” value was 25.2%. With `OC1CCCC1` the “hERG current change (%, negative = inhibition) at 10uM” value was 12.6%. `COc1cc(C(=O)Nc2c(C(=O)O)[nH]c3ccc(Br)cc23)cc(OC)c1OC` was tested, and the “hERG current change (%, negative = inhibition) at 10uM” value was 11.8%. With `O=C(Nc1ccc(S(=O)(=O)NC2CCCCC2)cc1)c1ccc(Br)o1` the “hERG current change (%, negative = inhibition) at 10uM” value was 3.38%. In the case of `O=C(Cn1nc(-c2ccco2)ccc1=O)Nc1cc(Cl)ccc1Cl`, the “hERG current change (%, negative = inhibition) at 10uM” value is reported as -5.12%. `O=C(O)c1cccc(Cn2cc(Br)cn2)c1` was tested, and the “hERG current change (%, negative = inhibition) at 10uM” value was 4.68%. In the case of `COc1ccccc1N1CCN(C(=O)c2cc(C(C)(C)C)oc2C)CC1`, the “hERG current change (%, negative = inhibition) at 10uM” value is reported as -4.04%. `Cc1cccc(N=Nc2c(N)n[nH]c2-c2ccc(Cl)cc2)c1` was tested, and the “hERG current change (%, negative = inhibition) at 10uM” value was 6.59%. For `CCOc1ccccc1CN1CCCC(C(=O)Nc2cccc(-n3cccn3)c2)C1` (centres unmarked), the “hERG current change (%, negative = inhibition) at 10uM” value was -69.5%. `O=[N+]([O-])c1ccc(C2Oc3ccccc3C3CC(c4ccccc4)=NN32)s1` (centres unmarked) was tested, and the “hERG current change (%, negative = inhibition) at 10uM” value was -4.6%. For `COC(=O)c1nn(-c2ccc(-c3ccccc3)cc2)cc1O`, the “hERG current change (%, negative = inhibition) at 10uM” value was -3.85%. With `CCN(CC(=O)Nc1ccc(NC(C)=O)cc1)C(=O)c1ccc(N2CCC(C)CC2)c([N+](=O)[O-])c1` the “hERG current change (%, negative = inhibition) at 10uM” value was -25.5%. `CC1(C)CC(=O)C=C(Nc2ccc(OCC(F)(F)C(F)F)cc2)C1` was tested, and the “hERG current change (%, negative = inhibition) at 10uM” value was -65.7%. With `COc1cc(C(=O)Oc2ccccc2N)cc(OC)c1OC` the “hERG current change (%, negative = inhibition) at 10uM” value was 0.207%. For `COc1cc(NC(=O)c2ccc(CNc3c(N4CCCC4)c(=O)c3=O)cc2)cc(OC)c1OC`, the “hERG current change (%, negative = inhibition) at 10uM” value was -0.986%. In the case of `Cc1ccc(O)c(NC(=S)NC(=O)Cc2ccc(Cl)cc2)c1`, the “hERG current change (%, negative = inhibition) at 10uM” value is reported as 18.1%. For `Cc1cccc2cc(CN(Cc3ccco3)C(=O)c3cccs3)c(=O)[nH]c12`, the “hERG current change (%, negative = inhibition) at 10uM” value was -1.63%. In the case of `CC(=O)N1CCN(c2ccc(Nc3ncnc4c3oc3ccccc34)cc2)CC1.Cl`, the “hERG current change (%, negative = inhibition) at 10uM” value is reported as -65.9%. `CN1CCC(N(C)S(=O)(=O)c2ccc(NC(=O)COc3ccc(Br)cc3Cl)cc2)CC1` was tested, and the “hERG current change (%, negative = inhibition) at 10uM” value was -1.05%. With `COc1ccccc1NS(=O)(=O)c1cccc(C(=O)OCC(=O)Nc2cc(C)on2)c1` the “hERG current change (%, negative = inhibition) at 10uM” value was -33.9%. For `CCOC(=O)c1sc(NS(=O)(=O)c2ccccc2)nc1C`, the “hERG current change (%, negative = inhibition) at 10uM” value was 10.4%. `O=C(O)CSCC(=O)N1CCN(S(=O)(=O)c2ccccc2)CC1` was tested, and the “hERG current change (%, negative = inhibition) at 10uM” value was 21.7%. For `Cn1c(O)c(C2=NN(C(=O)CCl)C(c3ccccc3)C2)c(=O)n(C)c1=O` (centres unmarked), the “hERG current change (%, negative = inhibition) at 10uM” value was 8.39%. For `Oc1ccccc1-c1cc(-c2ccc(F)cc2)n[nH]1`, the “hERG current change (%, negative = inhibition) at 10uM” value was 7.05%. In the case of `COc1cc(O)c2c(c1)OC(C)(C)CC2=O`, the “hERG current change (%, negative = inhibition) at 10uM” value is reported as 7.38%. For `CCN(CC)C(=O)Cn1cc(S(=O)(=O)CC(=O)NCc2ccc(F)cc2)c2ccccc21`, the “hERG current change (%, negative = inhibition) at 10uM” value was -14.7%. `Cc1ccc(S(=O)(=O)NC2=NCN(CCN3CCOCC3)CN2)cc1` was tested, and the “hERG current change (%, negative = inhibition) at 10uM” value was 8.55%. With `CN1CCCC(OC(=O)/C(C#N)=C/c2ccccc2)C1.Cl` (centres unmarked) the “hERG current change (%, negative = inhibition) at 10uM” value was 26.8%. For `C=CCNc1nc(N)c([N+](=O)[O-])c(NCCO)n1`, the “hERG current change (%, negative = inhibition) at 10uM” value was -2.15%. In the case of `Cc1nnc(SCC(=O)Nc2cc(C(F)(F)F)ccc2N2CCOCC2)o1`, the “hERG current change (%, negative = inhibition) at 10uM” value is reported as -9.56%. In the case of `COc1cc(-c2csc(NC3CCCCC3)n2)cc(OC)c1OC`, the “hERG current change (%, negative = inhibition) at 10uM” value is reported as 5.84%. `COc1ccc(NS(=O)(=O)c2cccc(NC(=O)CCS(=O)(=O)c3ccccc3)c2)cc1` was tested, and the “hERG current change (%, negative = inhibition) at 10uM” value was -4.41%. `O=c1cc(-c2ccccc2)[nH]c2nc3ccccc3n12` was tested, and the “hERG current change (%, negative = inhibition) at 10uM” value was 11.7%. In the case of `CCN(CC(=O)Nc1ccc(N2CCOCC2)cc1)C(=O)c1ccc(C#N)cc1`, the “hERG current change (%, negative = inhibition) at 10uM” value is reported as 8.85%. In the case of `O=C(CCN1CCc2ccccc2C1)Nc1ccc(F)cc1`, the “hERG current change (%, negative = inhibition) at 10uM” value is reported as -38.7%. In the case of `COc1ccc(CC(=O)NCc2nc(-c3ccccc3)no2)cc1`, the “hERG current change (%, negative = inhibition) at 10uM” value is reported as -1.97%. For `O=C(NC1CCN(c2ncccn2)CC1)c1ccccc1F`, the “hERG current change (%, negative = inhibition) at 10uM” value was 18.6%. In the case of `C/C=C\C=C/C(=O)Nc1cccc(C2=NOC3(C2)C[C@@H](C(N)=O)N(C(=O)COc2ccc(Cl)cc2)C3)c1` (some centres unmarked), the “hERG current change (%, negative = inhibition) at 10uM” value is reported as -7.47%. For `Cc1ccccc1Nc1nc(N)nc(COC(=O)CCS(=O)(=O)c2ccccc2)n1`, the “hERG current change (%, negative = inhibition) at 10uM” value was -14.4%. For `Cc1[nH]c(=O)[nH]c(=O)c1CSCC(=O)OCC(=O)Nc1ccccn1`, the “hERG current change (%, negative = inhibition) at 10uM” value was 3.79%. In the case of `COc1cccc(OCc2cc(C(=O)N3CCN(c4ccccc4OC)CC3)no2)c1`, the “hERG current change (%, negative = inhibition) at 10uM” value is reported as 6.19%. With `COc1ccc(CCNC(=O)CSc2n[nH]c(N)n2)cc1` the “hERG current change (%, negative = inhibition) at 10uM” value was 15.8%. `Cc1ccc(-c2nn(CC(=O)O)c(=O)c3ccccc23)cc1` was tested, and the “hERG current change (%, negative = inhibition) at 10uM” value was -10.7%. `COC(C(=O)NC(C(C)C)C(C)C)c1ccccc1` (centres unmarked) was tested, and the “hERG current change (%, negative = inhibition) at 10uM” value was -32.2%. In the case of `N#Cc1ccccc1S(=O)(=O)N1CCN(CC(=O)Nc2ccccc2C(=O)NC2CC2)CC1`, the “hERG current change (%, negative = inhibition) at 10uM” value is reported as -66.5%. `CC(=O)NC(C)c1cc(Cl)c2ccccc2c1O` (centres unmarked) was tested, and the “hERG current change (%, negative = inhibition) at 10uM” value was 1.04%. For `CC1=C([N+](=O)[O-])C(c2cccc(Br)c2)C2=C(N1)c1ccccc1C2=O` (centres unmarked), the “hERG current change (%, negative = inhibition) at 10uM” value was -6.87%. For `Cc1cccc2c1CC(C)(C)N=C2C1=C(O)CC(C)(C)CC1=O`, the “hERG current change (%, negative = inhibition) at 10uM” value was 6.37%. With `CC1SC(=S)N(c2ccc(N(C)C)cc2)C1=O` (centres unmarked) the “hERG current change (%, negative = inhibition) at 10uM” value was 13.1%. In the case of `Cc1ccc(C)c(NC(=O)CNS(=O)(=O)c2ccccc2)c1`, the “hERG current change (%, negative = inhibition) at 10uM” value is reported as 9.63%. `COC(=O)C1=C(C)N(Cc2ccccc2)C(=NCC(C)C)N[C@H]1c1ccccc1` was tested, and the “hERG current change (%, negative = inhibition) at 10uM” value was -55.9%. In the case of `CCOC(=O)C1C(=O)C=C(C)C(C(=O)OCC)C1c1cccc([N+](=O)[O-])c1` (centres unmarked), the “hERG current change (%, negative = inhibition) at 10uM” value is reported as -3.71%.

Reference: paper PMC4336329 (PLoS ONE, 2015)
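Note: peak tail current of the secondary pulse compared with the same well before compound.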
